Substitutions are numbered along the chain they refer to; changes in the protein carry UniProt numbers. Some of the results follow.
T1: RBFOX1 RRM RbFoxmut (Fox-RRM*) (Homo sapiens, UniProt Q9NWB1 109-208, R118D;E147R;N151S;E152T)
T1 sequence: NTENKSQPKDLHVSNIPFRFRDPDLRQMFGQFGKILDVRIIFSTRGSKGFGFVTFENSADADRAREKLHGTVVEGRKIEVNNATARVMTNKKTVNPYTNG

B1: ACGAUCU (DNA:RNA)
RNA: GGGAGACCGGAAUUCAGAUUGUCCACGAUCUUUAAAUCCCGUCGUAGCCACCA
DNA 1: CAATCTGAATTCCGGTCTCCC
DNA 2: TGGTGGCTACGACGGGATT
B2: GGGGGGC (DNA:RNA)
RNA: B1 RNA with A25G, C26G, A28G, U29G, C30G, U31C
DNA 1: CAATCTGAATTCCGGTCTCCC
DNA 2: TGGTGGCTACGACGGGATT
B3: GAGCCAA (DNA:RNA)
RNA: B1 RNA with A25G, C26A, A28C, U29C, C30A, U31A
DNA 1: CAATCTGAATTCCGGTCTCCC
DNA 2: TGGTGGCTACGACGGGATT
B4: AUGUCAU (DNA:RNA)
RNA: B1 RNA with C26U, A28U, U29C, C30A
DNA 1: CAATCTGAATTCCGGTCTCCC
DNA 2: TGGTGGCTACGACGGGATT
B5: CUAAGGA (DNA:RNA)
RNA: B1 RNA with A25C, C26U, G27A, U29G, C30G, U31A
DNA 1: CAATCTGAATTCCGGTCTCCC
DNA 2: TGGTGGCTACGACGGGATT
B6: CUACAUG (DNA:RNA)
RNA: GGGAGACCGGAAUUCAGAUUGUCCCUACAUGUUAAAUCCCGUCGUAGCCACCA
DNA 1: CAATCTGAATTCCGGTCTCCC
DNA 2: TGGTGGCTACGACGGGATT
B7: AAGAGGC (DNA:RNA)
RNA: B1 RNA with C26A, U29G, C30G, U31C
DNA 1: CAATCTGAATTCCGGTCTCCC
DNA 2: TGGTGGCTACGACGGGATT
B8: CUUAGCU (DNA:RNA)
RNA: B1 RNA with A25C, C26U, G27U, U29G
DNA 1: CAATCTGAATTCCGGTCTCCC
DNA 2: TGGTGGCTACGACGGGATT
B9: AGCGCUA (DNA:RNA)
RNA: B1 RNA with C26G, G27C, A28G, U29C, C30U, U31A
DNA 1: CAATCTGAATTCCGGTCTCCC
DNA 2: TGGTGGCTACGACGGGATT

target: T1, RBFOX1 RRM RbFoxmut (Fox-RRM*); assay: EMSA; HiTS-Eq, 1 nM pool, 10 min; buffer printed only for the single-RNA assays: 10 mM Tris pH 7.5, 150 mM NaCl, 3.4 mM EDTA, 0.001% NP-40, 30 C; details: tags: His6 N-terminal (pET28a); label: 5' 32P
How it was run: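 Relative association constants, normalised to the cognate motif, were derived by comparing read counts of each RNA species with those of the control reaction. The RNA sequenced was the free fraction, separated by 8% native PAGE after a 10 min equilibration in 50 µL of 1 nM 5′-radiolabelled RNA (7 randomized nucleotides) with increasing concentrations of purified wild-type or mutant RbFox RRM.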

| Binder | binding signal |
| --- | --- |
| B1 | 0.0674 KA relative to UGCAUGU |
| B2 | 0.0893 KA relative to UGCAUGU |
| B3 | 0.0785 KA relative to UGCAUGU |
| B4 | 0.126 KA relative to UGCAUGU |
| B5 | 0.066 KA relative to UGCAUGU |
| B6 | 0.0835 KA relative to UGCAUGU |
| B7 | 0.0977 KA relative to UGCAUGU |
| B8 | 0.103 KA relative to UGCAUGU |
| B9 | 0.111 KA relative to UGCAUGU |

Reference: publication PMC9911399, “Two distinct binding modes provide the RNA-binding protein RbFox with extraordinary sequence specificity”
